Measurements from the BET-seq Pho4 binding data (Le et al. 2018).
The other results are listed elsewhere or left out. Values were computed here from the reads of four pooled replicates and scatter widely.

The sequences below were run against T1, Pho4 (S. cerevisiae) (UniProt P07270) (assay: relative binding free energy (BET-seq); higher = weaker binding). Details: reference: library average.
T1 sequence: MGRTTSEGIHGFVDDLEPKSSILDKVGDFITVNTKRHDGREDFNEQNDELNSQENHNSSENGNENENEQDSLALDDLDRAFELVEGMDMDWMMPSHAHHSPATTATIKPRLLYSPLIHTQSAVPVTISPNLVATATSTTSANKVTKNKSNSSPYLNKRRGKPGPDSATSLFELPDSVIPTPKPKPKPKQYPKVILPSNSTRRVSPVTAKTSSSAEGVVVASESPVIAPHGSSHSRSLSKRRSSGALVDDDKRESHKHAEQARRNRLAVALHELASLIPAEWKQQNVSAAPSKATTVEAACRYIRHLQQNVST

| Sequence | relative binding free energy [kcal/mol] |
| --- | --- |
| AGGGACACGTGTGTTG | -0.03 |
| TCTATCACGTGAGGTG | 0.19 |
| ACGGACACGTGTTGGT | 0.11 |
| ATTCTCACGTGGGGGA | 0.19 |
| GGTGTCACGTGGGTGC | 0 |
| TTCTGCACGTGTGGCG | 0.05 |
| GGCATCACGTGGTTAT | 0.28 |
| ATTCACACGTGGGGTT | -0.05 |
| TTACACACGTGAAGGT | 0.24 |
| TAAGGCACGTGTGGGT | 0.02 |
| TGTACCACGTGGATTT | -0.04 |
| ATATTCACGTGCGGTA | 0.19 |
| GGGCGCACGTGTCGGC | -0.02 |
| ATGATCACGTGCGTGG | 0.1 |
| AATGTCACGTGAGGGG | 0.33 |
| AGGGGCACGTGGCCGT | -0.2 |
| ATGGTCACGTGTTCAT | -0.02 |
| TCGCTCACGTGATGTT | 0.3 |
| TGCGGCACGTGGGGTT | -0.16 |
| TAGGGCACGTGTGGTG | -0.06 |
| TGGGCCACGTGTCCGG | -0.06 |

| Sequence | relative binding free energy [kcal/mol] |
| --- | --- |
| GGCTGCACGTGACGTG | 0.25 |
| GGGTTCACGTGATACT | 0.39 |
| GTACTCACGTGGAGGT | 0.18 |
| TGTCGCACGTGGTAGG | -0.02 |
| ATTGGCACGTGTCGTT | -0.06 |
| CGTGTCACGTGCGGGA | -0.16 |
| AATTACACGTGGTTGC | 0.16 |
| GGTTACACGTGGTTCT | 0.14 |
| TTGACCACGTGGGCGG | -0.12 |
| CAAGGCACGTGTTGAT | 0.02 |
| GGGTGCACGTGTATTT | 0.11 |
| AGTGTCACGTGCATGT | -0.14 |
| CAGGGCACGTGCTAGG | -0.24 |
| CGAAGCACGTGTGGTT | -0.07 |
| ACTTGCACGTGTGAAG | 0.15 |
| GGAAGCACGTGTAGTT | -0.21 |
| ATGAGCACGTGGCGTA | -0.17 |
| AGTATCACGTGAACGT | 0.24 |
| CAGGACACGTGTTGGA | 0.1 |
| TTTTTCACGTGCGAGC | 0.38 |
| ATGTACACGTGTTAGT | 0 |

| Sequence | relative binding free energy [kcal/mol] |
| --- | --- |
| TGTTTCACGTGTGCTC | 0.38 |
| TATGTCACGTGGTTGA | 0.06 |
| GTTGTCACGTGGAGAC | 0.26 |
| TTGGACACGTGGGGAA | -0.02 |
| TCTGGCACGTGAGGGC | 0.15 |
| ATTAGCACGTGTATTG | -0.2 |
| GTGTGCACGTGGTTAT | -0.03 |
| AGTTGCACGTGGATTT | 0.14 |
| CATTTCACGTGCTGGG | 0.24 |
| CGAGACACGTGATGGG | 0.04 |
| TGGCGCACGTGCTCGG | -0.16 |
| ATGTTCACGTGTGGTA | 0.23 |
| TTTGGCACGTGATCAT | -0.1 |
| ATGAGCACGTGTGGCT | -0.03 |
| TATGACACGTGGGTTA | -0.04 |
| TTGAGCACGTGTTAAT | -0.01 |
| TAGAACACGTGTTGTG | 0.08 |
| TTTACCACGTGGGGTG | -0.32 |
| AACTGCACGTGGGAGG | -0.15 |
| TTGTTCACGTGTGCTT | 0.26 |
| AAGGGCACGTGCGTAT | -0.09 |
